The subject of this assay is Blumeria graminis f. sp. tritici (Erysiphe graminis f. sp. tritici). Nature of the assay: Example A4: Blumeria graminis f. sp. tritici / wheat / leaf disc preventative (powdery mildew on wheat). Particulars: foliar, read-out: control of Blumeria graminis f. sp. tritici. From the text:
Example A4: Blumeria Graminis F. Sp. Tritici (Erysiphe Graminis F. Sp. Tritici) / Wheat / Leaf Disc Preventative (Powdery Mildew On Wheat)
Wheat leaf segments cv. […] The leaf disks are inoculated by shaking powdery mildew infected plants above the test plates 1 day after application.
On to `CCN(CC)C(=O)N(c1cc(F)nc(F)c1)c1nc(C(=O)NC2CCC2(C)C)c(C)s1` (centres unmarked) [X.16, 2-[diethylcarbamoyl-(2,6-difluoro-4-pyridyl)amino]-N-(2,2-dimethylcyclobutyl)-5-methyl-thiazole-4-carboxamide], for which the pest or weed control at 200 ppm is at least 80%.

As for `Cc1sc(N(C(=O)CC(F)(F)F)c2cc(F)nc(F)c2)nc1C(=O)NC1CCC1(C)C` (centres unmarked) [X.21, 2-[(2,6-difluoro-4-pyridyl)-(3,3,3-trifluoropropanoyl)amino]-N-(2,2-dimethylcyclobutyl)-5-methyl-thiazole-4-carboxamide], the pest or weed control at 200 ppm is at least 80%.

`CC(=O)N(c1cc(F)nc(F)c1)c1nc(C(=O)NC2CCC23CCCC3)c(C)s1` (centres unmarked) [X.37, 2-[acetyl-(2,6-difluoro-4-pyridyl)amino]-5-methyl-N-spiro[3.4] octan-3-yl-thiazole-4-carboxamide]: the pest or weed control at 200 ppm is at least 80%.

Turning to `Cc1sc(N(C(=O)Cc2ccccc2)c2cc(F)nc(F)c2)nc1C(=O)NC1CCC1(C)C` (centres unmarked) [X.09, 2-[(2,6-difluoro-4-pyridyl)-(2-phenylacetyl)amino]-N-(2,2-dimethylcyclobutyl)-5-methyl-thiazole-4-carboxamide], the pest or weed control at 200 ppm is at least 80%.

As for `Cc1sc(N(C(=O)C(C)C)c2cc(F)nc(F)c2)nc1C(=O)NC1CCC1(C)C` (centres unmarked) [X.38, 2-[(2,6-difluoro-4-pyridyl)-(2-methylpropanoyl)amino]-N-(2,2-dimethylcyclobutyl)-5-methyl-thiazole-4-carboxamide], the pest or weed control at 200 ppm was at least 80%.

As to `CC(=O)N(c1cc(F)nc(F)c1)c1nc(C(=O)NC2CCC2(C)C)c(C)s1` (centres unmarked) [X.36, 2-[acetyl-(2,6-difluoro-4-pyridyl)amino]-N-(2,2-dimethylcyclobutyl)-5-methylthiazole-4-carboxamide], the pest or weed control at 200 ppm was at least 80%.

`Cc1sc(N(C(=O)CCl)c2cc(F)nc(F)c2)nc1C(=O)NC1CCC1(C)C` (centres unmarked) [X.17, 2-[(2-chloroacetyl)-(2,6-difluoro-4-pyridyl)amino]-N-(2,2-dimethylcyclobutyl)-5-methyl-thiazole-4-carboxamide]: the pest or weed control at 200 ppm is at least 80%.

`Cc1sc(N(C(=O)C2CC2)c2cc(F)nc(F)c2)nc1C(=O)NC1CCC1(C)C` (centres unmarked) [X.24, 2-[cyclopropanecarbonyl-(2,6-difluoro-4-pyridyl)amino]-N-(2,2-dimethylcyclobutyl)-5-methyl-thiazole-4-carboxamide]: the pest or weed control at 200 ppm was at least 80%.

In the case of `CCOC(=O)C(=O)N(c1cc(F)nc(F)c1)c1nc(C(=O)NC2CCC2(C)C)c(C)s1` (centres unmarked) [X.34, ethyl 2-[(2,6-difluoro-4-pyridyl)-[4-[(2,2-dimethylcyclobutyl)carbamoyl]-5-methyl-thiazol-2-yl]amino]-2-oxo-acetate], the pest or weed control at 200 ppm was at least 80%.

Consider `CCOCC(=O)N(c1cc(F)nc(F)c1)c1nc(C(=O)NC2CCC2(C)C)c(C)s1` (centres unmarked) [X.15, 2-[(2,6-difluoro-4-pyridyl)-(2-ethoxyacetyl)amino]-N-(2,2-dimethylcyclobutyl)-5-methyl-thiazole-4-carboxamide], for which the pest or weed control at 200 ppm is at least 80%.

For the molecule `CCOC(=O)OC(C)C(=O)N(c1cc(F)nc(F)c1)c1nc(C(=O)NC2CCC2)c(C)s1` (centres unmarked) [X.02, [2-[[4-(cyclobutylcarbamoyl)-5-methyl-thiazol-2-yl]-(2,6-difluoro-4-pyridyl)amino]-1-methyl-2-oxo-ethyl] ethyl carbonate], the pest or weed control at 200 ppm is at least 80%.

On to `COC(=O)CCC(=O)N(c1cc(F)nc(F)c1)c1nc(C(=O)NC2CCC2(C)C)c(C)s1` (centres unmarked) [X.23, methyl 4-[(2,6-difluoro-4-pyridyl)-[4-[(2,2-dimethylcyclobutyl)carbamoyl]-5-methyl-thiazol-2-yl]amino]-4-oxo-butanoate], for which the pest or weed control at 200 ppm was at least 80%.

As to `Cc1sc(N(C(=O)CF)c2cc(F)nc(F)c2)nc1C(=O)NC1CCC1(C)C` (centres unmarked) [X.27, 2-[(2,6-difluoro-4-pyridyl)-(2-fluoroacetyl)amino]-N-(2,2-dimethylcyclobutyl)-5-methyl-thiazole-4-carboxamide], the pest or weed control at 200 ppm is at least 80%.

In the case of `Cc1sc(N(C(=O)Oc2ccccc2)c2cc(F)nc(F)c2)nc1C(=O)NC1CCC1(C)C` (centres unmarked) [X.26, phenyl N-(2,6-difluoro-4-pyridyl)-N-[4-[(2,2-dimethylcyclobutyl)carbamoyl]-5-methyl-thiazol-2-yl]carbamate], the pest or weed control at 200 ppm is at least 80%.

Regarding `Cc1sc(N(C(=O)C(C)O)c2cc(F)nc(F)c2)nc1C(=O)NC1CCC12CCCC2` (centres unmarked) [X.05, 2-[(2,6-difluoro-4-pyridyl)-(2-hydroxypropanoyl)amino]-5-methyl-N-spiro[3.4]octan-3-yl-thiazole-4-carboxamide], the pest or weed control at 200 ppm was at least 80%.

For the molecule `COC(C)C(=O)N(c1cc(F)nc(F)c1)c1nc(C(=O)NC2CCC2)c(C)s1` (centres unmarked) [X.07, N-cyclobutyl-2-[(2,6-difluoro-4-pyridyl)-(2-methoxypropanoyl)amino]-5-methylthiazole-4-carboxamide], the pest or weed control at 200 ppm was at least 80%.

As for `COc1sc(N(C(C)=O)c2cc(F)nc(F)c2)nc1C(=O)NC1CCC12CCCC2` (centres unmarked) [X.10, 2-[acetyl-(2,6-difluoro-4-pyridyl)amino]-5-methoxy-N-spiro[3.4]octan-3-yl-thiazole-4-carboxamide], the pest or weed control at 200 ppm is at least 80%.

As for `Cc1sc(N(C=O)c2cc(F)nc(F)c2)nc1C(=O)NC1CCC1(C)C` (centres unmarked) [X.33, 2-[(2,6-difluoro-4-pyridyl)-formyl-amino]-N-(2,2-dimethylcyclobutyl)-5-methylthiazole-4-carboxamide], the pest or weed control at 200 ppm was at least 80%.

On to `Cc1sc(N(C(=O)c2ccccc2)c2cc(F)nc(F)c2)nc1C(=O)NC1CCC1(C)C` (centres unmarked) [X.35, 2-[benzoyl-(2,6-difluoro-4-pyridyl)amino]-N-(2,2-dimethylcyclobutyl)-5-methylthiazole-4-carboxamide], for which the pest or weed control at 200 ppm was at least 80%.

`CCOC(=O)OC(C)C(=O)N(c1cc(F)nc(F)c1)c1nc(C(=O)NC2CCC23CCCC3)c(C)s1` (centres unmarked) [X.04, [2-[(2,6-difluoro-4-pyridyl)-[5-methyl-4-(spiro[3.4]octan-3-ylcarbamoyl)thiazol-2-yl]amino]-1-methyl-2-oxo-ethyl] ethyl carbonate]: the pest or weed control at 200 ppm is at least 80%.

As for `COC(=O)OC(C)C(=O)N(c1cc(F)nc(F)c1)c1nc(C(=O)NC2CCC23CCCC3)c(C)s1` (centres unmarked) [X.03, [2-[(2,6-difluoro-4-pyridyl)-[5-methyl-4-(spiro[3.4]octan-3-ylcarbamoyl)thiazol-2-yl]amino]-1-methyl-2-oxo-ethyl] methyl carbonate], the pest or weed control at 200 ppm was at least 80%.

Turning to `CCOC(=O)N(c1cc(F)nc(F)c1)c1nc(C(=O)NC2CCC2(C)C)c(C)s1` (centres unmarked) [X.30, ethyl N-(2,6-difluoro-4-pyridyl)-N-[4-[(2,2-dimethylcyclobutyl)carbamoyl]-5-methyl-thiazol-2-yl]carbamate], the pest or weed control at 200 ppm is at least 80%.

Take `CC(=O)OCC(=O)N(c1cc(F)nc(F)c1)c1nc(C(=O)NC2CCC2(C)C)c(C)s1` (centres unmarked) [X.08, [2-[(2,6-difluoro-4-pyridyl)-[4-[(2,2-dimethylcyclobutyl)carbamoyl]-5-methyl-thiazol-2-yl]amino]-2-oxo-ethyl] acetate]: the pest or weed control at 200 ppm is at least 80%.

In the case of `Cc1sc(N(C(=O)COCc2ccccc2)c2cc(F)nc(F)c2)nc1C(=O)NC1CCC1(C)C` (centres unmarked) [X.14, 2-[(2-benzyloxyacetyl)-(2,6-difluoro-4-pyridyl)amino]-N-(2,2-dimethylcyclobutyl)-5-methyl-thiazole-4-carboxamide], the pest or weed control at 200 ppm was at least 80%.

Consider `Cc1sc(N(C(=O)c2cccs2)c2cc(F)nc(F)c2)nc1C(=O)NC1CCC1(C)C` (centres unmarked) [X.31, 2-[(2,6-difluoro-4-pyridyl)-(thiophene-2-carbonyl)amino]-N-(2,2-dimethylcyclobutyl)-5-methyl-thiazole-4-carboxamide], for which the pest or weed control at 200 ppm is at least 80%.

In the case of `CC(=O)N(c1cc(F)nc(F)c1)c1nc(C(=O)NC2CCC2)c(C)s1` [X.13, 2-[acetyl-(2,6-difluoro-4-pyridyl)amino]-N-cyclobutyl-5-methyl-thiazole-4-carboxamide], the pest or weed control at 200 ppm is at least 80%.

`COCCOC(=O)N(c1cc(F)nc(F)c1)c1nc(C(=O)NC2CCC2(C)C)c(C)s1` (centres unmarked) [X.28, 2-methoxyethyl N-(2,6-difluoro-4-pyridyl)-N-[4-[(2,2-dimethylcyclobutyl)carbamoyl]-5-methyl-thiazol-2-yl]carbamate]: the pest or weed control at 200 ppm was at least 80%.

As for `Cc1sc(N(C(=O)c2ccco2)c2cc(F)nc(F)c2)nc1C(=O)NC1CCC1(C)C` (centres unmarked) [X.19, 2-[(2,6-difluoro-4-pyridyl)-(furan-2-carbonyl)amino]-N-(2,2-dimethylcyclobutyl)-5-methyl-thiazole-4-carboxamide], the pest or weed control at 200 ppm is at least 80%.

As for `COC(=O)N(c1cc(F)nc(F)c1)c1nc(C(=O)NC2CCC2(C)C)c(C)s1` (centres unmarked) [X.32, methyl N-(2,6-difluoro-4-pyridyl)-N-[4-[(2,2-dimethylcyclobutyl)carbamoyl]-5-methyl-thiazol-2-yl]carbamate], the pest or weed control at 200 ppm was at least 80%.

As to `COCC(=O)N(c1cc(F)nc(F)c1)c1nc(C(=O)NC2CCC2)c(C)s1` [X.12, N-cyclobutyl-2-[(2,6-difluoro-4-pyridyl)-(2-methoxyacetyl)amino]-5-methyl-thiazole-4-carboxamide], the pest or weed control at 200 ppm was at least 80%.

Consider `COCC(=O)N(c1cc(F)nc(F)c1)c1nc(C(=O)NC2CCC2(C)C)c(C)s1` (centres unmarked) [X.29, 2-[(2,6-difluoro-4-pyridyl)-(2-methoxyacetyl)amino]-N-(2,2-dimethylcyclobutyl)-5-methyl-thiazole-4-carboxamide], for which the pest or weed control at 200 ppm is at least 80%.

Regarding `COC(=O)CC(=O)N(c1cc(F)nc(F)c1)c1nc(C(=O)NC2CCC2(C)C)c(C)s1` (centres unmarked) [X.18, methyl 3-[(2,6-difluoro-4-pyridyl)-[4-[(2,2-dimethylcyclobutyl)carbamoyl]-5-methyl-thiazol-2-yl]amino]-3-oxo-propanoate], the pest or weed control at 200 ppm is at least 80%.

Source of the values: patent US20230270114A1, “FUNGICIDAL COMPOSITIONS” (SYNGENTA CROP PROTECTION AG, priority 2020, published 2023).
